The supplement of paper PMC4967469
IC50 is the fitted dose that halves viability relative to control wells, and lower means more sensitive; where the fit passes the top or lowest dose, that dose stands as a limit. The AUC spans the tested range (256-fold, ending at the top dose) of the same fit; the more sensitive the line, the further below 1. An inferred top dose was derived from the fitted curves, not read from the paper.

How the values were obtained:
Test in all cases: Viability of human cancer cell lines after 72 h of drug (GDSC screen)
ACHP (KIN001-260) = compound: N#Cc1c(C2CCNCC2)cc(-c2c(O)cccc2OCC2CC2)nc1N [ACHP (KIN001-260)]; conditions: top dose 20 µM; top dose inferred
Description: (§1)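 Human cancer cell lines in 384-well plates, medium with 10% serum, drug for 72 h over a 256-fold dose range (nine 2-fold or five 4-fold steps up to the top dose). Adherent lines were fixed and stained with the nucleic acid dye Syto60, suspension lines read with resazurin; signal relative to control wells, capped at 0 and 100%. One two-parameter sigmoid per drug and line, fitted in a mixed model over all curves with the slope shared within a line.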

XMD8-92 = compound: CCOc1cc(N2CCC(O)CC2)ccc1Nc1ncc2c(n1)N(C)c1ccccc1C(=O)N2C [XMD8-92]; conditions: top dose 10 µM; top dose inferred
Description: as §1

CAY10603 = compound: CC(C)(C)OC(=O)Nc1ccc(-c2cc(C(=O)NCCCCCCC(=O)NO)no2)cc1 [CAY10603]; conditions: top dose 20 µM; top dose inferred
Description: as §1

CH5424802 = compound: CCc1cc2c(cc1N1CCC(N3CCOCC3)CC1)C(C)(C)c1[nH]c3cc(C#N)ccc3c1C2=O [CH5424802]; conditions: top dose 5.12 µM; top dose inferred
Description: as §1

| Cell Line | AUC (ACHP (KIN001-260)) | IC50 (ACHP (KIN001-260)) | AUC (XMD8-92) | IC50 (XMD8-92) | AUC (CAY10603) | IC50 (CAY10603) | AUC (CH5424802) | IC50 (CH5424802) |
| --- | --- | --- | --- | --- | --- | --- | --- | --- |
| LU-65 (large cell lung carcinoma, suspension) | 0.96 | > 20 µM | 0.978 | > 10 µM | 0.607 | 2.6 µM |  |  |
| HCC202 (breast, adherent) | 0.966 | > 20 µM | 0.968 | > 10 µM | 0.524 | 1.49 µM |  |  |
| KELLY (neuroblastoma, adherent) | 0.861 | 14.5 µM | 0.98 | > 10 µM | 0.321 | 0.417 µM |  |  |
| A375 (melanoma, adherent) | 0.979 | > 20 µM | 0.911 | 9.87 µM | 0.448 | 0.929 µM |  |  |
| SK-N-SH (neuroblastoma, adherent) | 0.959 | > 20 µM | 0.884 | > 10 µM | 0.382 | 0.595 µM |  |  |
| A704 (kidney, adherent) | 0.974 | > 20 µM | 0.929 | > 10 µM |  |  | 0.982 | > 5.12 µM |
| SK-N-AS (neuroblastoma, adherent) | 0.984 | > 20 µM | 0.904 | > 10 µM | 0.358 | 0.476 µM |  |  |
| SW626 (ovary, adherent) |  |  | 0.889 | > 10 µM | 0.87 | > 20 µM | 0.98 | > 5.12 µM |
| NB1 (neuroblastoma, semi-adherent) | 0.913 | > 20 µM | 0.872 | > 10 µM | 0.76 | 7.7 µM |  |  |
| SR (lymphoid neoplasm, suspension) | 0.702 | 4.33 µM | 0.767 | 3.37 µM | 0.062 | < 0.0781 µM |  |  |
| LB647-SCLC (small cell lung carcinoma, semi-adherent) |  |  | 0.931 | > 10 µM | 0.886 | > 20 µM |  |  |
| NB10 (neuroblastoma, adherent) | 0.971 | > 20 µM | 0.941 | > 10 µM |  |  | 0.986 | > 5.12 µM |
| SW620 (large intestine, adherent) | 0.979 | > 20 µM | 0.881 | 8.34 µM |  |  | 0.971 | > 5.12 µM |
| NCI-H929 (myeloma, suspension) |  |  | 0.758 | 3.01 µM |  |  |  |  |
| ZR-75-30 (breast, adherent) |  |  | 0.957 | > 10 µM |  |  |  |  |
| HCC-366 (non-small cell lung carcinoma, adherent) |  |  | 0.971 | > 10 µM |  |  |  |  |
| GAK (melanoma, adherent) | 0.954 | > 20 µM | 0.929 | > 10 µM | 0.665 | 3.5 µM |  |  |
| H290 (mesothelioma, adherent) |  |  | 0.867 | 7.78 µM |  |  | 0.979 | > 5.12 µM |
| NCI-H508 (large intestine, semi-adherent) |  |  | 0.864 | > 10 µM |  |  |  |  |
| COLO-829 (melanoma, adherent) | 0.979 | > 20 µM | 0.968 | > 10 µM | 0.609 | 2.88 µM |  |  |
| NB14 (neuroblastoma, adherent) | 0.895 | > 20 µM | 0.925 | > 10 µM |  |  | 0.971 | > 5.12 µM |
| DIFI (large intestine, adherent) |  |  | 0.928 | > 10 µM |  |  |  |  |
| H2810 (mesothelioma, adherent) |  |  | 0.88 | > 10 µM |  |  |  |  |
| IST-SL2 (small cell lung carcinoma, suspension) |  |  | 0.984 | > 10 µM | 0.986 | > 20 µM | 0.977 | > 5.12 µM |
